Measured values from PubChem BioAssay AID1865 (National Center for Advancing Translational Sciences (NCATS), 2009).
Out of some 280,000 compounds screened, about 540 (0.19%) were called active. The inconclusive results got no clear call from the source; some entries with a clear call stand among them for comparison. Calls come from the whole dose curve; as a rule, active = well fitted activation curve with a large enough effect; inconclusive = small, poorly fitted or top-dose-only effect; inactive = flat fitted curve, though single readings scatter. Potencies beside an inconclusive call are fits to weak or partial responses and may not hold up.
Potency is the fitted concentration of half-maximal effect; tags give direction and shape of the fitted curve.

Assay: Quantitative High-Throughput Screen for Regulators of Epigenetic Control; note: nearly all actives have a fitted effect of over 60% in size
Details: murine LDR cells, GFP reporter derepression, 30 h; series mostly up to 53.9 µM
In short: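 GFP-positive cell count by laser-scanning cytometry (objects 20–120 um) after 30 h, 37 C compound exposure of murine LDR cells; reporter is CMV-GFP integrated at a silenced locus, inducible by HDAC or DNMT inhibitors.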
In the case of O=C(Nc1ncccc1Cl)C1COc2ccccc2O1 (centres undefined), the Potency is reported as “inactive”. In the case of Cc1cc(C)n2c(Nc3c(C)cccc3C)c(-c3ccsc3)nc2n1, the Potency is reported as inconclusive: 35.5 µM [activator, single point]. In the case of O=C(Cc1cccs1)NC1CC(=O)N(c2ccccc2)C1 (centres undefined), the Potency is reported as “inactive”. In the case of CC(=O)c1ccc(N2CCN(C(=S)Nc3ccc(Oc4ccccc4)cc3)CC2)cc1, the Potency is reported as “inactive”. With COC(=O)/C=c1/s/c(=C(\C#N)C(=O)NCc2ccco2)n(-c2ccc(C)cc2)c1=O the Potency was inconclusive: 0.0398 µM [activator, full curve]. With CC1CN(C(=O)CN2C(=O)c3ccccc3S2(=O)=O)CC(C)O1 (centres undefined) the Potency was inconclusive: 11.2 µM [activator, partial curve]. In the case of Cn1cccc1/C=C1\CCc2ccccc2C1=O, the Potency is reported as “inactive”. In the case of CCOc1ccc(CCNC(=O)c2cnc3sc(N4CCOCC4)nn3c2=O)cc1, the Potency is reported as “inactive”. With Cc1cc2nc(Sc3c([N+](=O)[O-])nc(C)n3Cc3ccccc3)[nH]c2cc1C the Potency was “inactive”. For COC(=O)C(=Cc1cc(Br)c(OC)c(Br)c1)C(=O)OC, the Potency was inconclusive: 22.4 µM [activator, single point]. For COc1ccc(OCC(=O)Nn2c(-c3ccc(OC)cc3)nc3ccccc3c2=O)cc1, the Potency was “inactive”. For Cn1ccc2c(OCC(=O)NCc3ccccc3Cl)cccc2c1=O, the Potency was inconclusive: 0.708 µM [activator, single point]. With NCCCNCCCCN(CCCN)/[N+]([O-])=N/O the Potency was inconclusive: 8.91 µM [activator, partial curve, poor fit]. In the case of COc1cccc(N(C(=O)c2ccco2)c2nc(-c3sc(NC(=O)c4ccco4)nc3C)cs2)c1, the Potency is reported as inconclusive: 10 µM [activator, partial curve]. For CCC(=O)N1CCN(c2ccc(Cl)cc2NC(=O)Cc2ccc(Cl)cc2)CC1, the Potency was inconclusive: 5.62 µM [activator, single point]. With Cc1ccc2c(c1C)NC(C(=O)O)C1CC=CC21 (centres undefined) the Potency was “inactive”. With Cc1nc2c(C(=O)NCc3ccc4c(c3)OCO4)cnn2c(C)c1Cc1ccc(F)cc1Cl the Potency was “inactive”. In the case of CCCN1C(=O)/C(=C/c2c(N3CCNC(=O)C3CC(=O)OC)nc3c(C)cccn3c2=O)SC1=S (centres undefined), the Potency is reported as active: 14.1 µM. With CC1CCN(CCCNC(=O)c2ccc3c(Cl)c4c(nc3c2)CCCC4)CC1 the Potency was inconclusive: 6.31 µM [activator, single point]. In the case of NC(=O)CC(NC(=O)c1ccccc1)c1ccc(NCCc2ccc(Cl)cc2)c([N+](=O)[O-])c1 (centres undefined), the Potency is reported as inconclusive: 35.5 µM [activator, single point]. With COc1cc(NC(=O)Cc2ccc(Cl)cc2)ccc1NC(=O)c1ccco1 the Potency was inconclusive: 35.5 µM [activator, single point]. In the case of Cc1ccsc1-c1nc(CSCC(=O)N2CCN(c3ccccc3)CC2)c(C)o1, the Potency is reported as inconclusive: 3.98 µM [activator, full curve, poor fit]. In the case of O=S(=O)(NCCc1ccc(F)cc1)c1cccc2cccnc12, the Potency is reported as inconclusive: 31.6 µM [activator, single point]. In the case of Cc1cc(CC(C)C)n(-c2nc3ccccc3c(=O)n2OCc2ccccc2)n1, the Potency is reported as “inactive”. With CCOCCCNS(=O)(=O)Cc1ccccc1 the Potency was inconclusive: 35.5 µM [activator, single point]. For O=C(NC(c1ccc(Cl)cc1)c1cc(Cl)c2cccnc2c1O)c1cccnc1 (centres undefined), the Potency was inconclusive: 28.2 µM [activator, single point]. In the case of CC(C)c1onc(C(=O)NC2CCCCC2)c1[N+](=O)[O-], the Potency is reported as inconclusive: 15.8 µM [activator, single point]. With COc1ccc(CCNC(=O)Cc2c(C)c3c(cc(C)c4c(C)c(C)oc43)oc2=O)cc1OC the Potency was inconclusive: 10 µM [activator, partial curve]. For CCOC(=O)c1ccc(Nc2ncnc3c2cnn3C)cc1, the Potency was inconclusive: 3.98 µM [activator, single point]. For COc1ccc(/C=C/C(=O)Nc2ccc3nc(N4CCC(C)CC4)cc(C)c3c2)cc1OC, the Potency was inconclusive: 35.5 µM [activator, single point]. With Cn1cccc1/C=C1\SC(=S)N(CC(=O)O)C1=O the Potency was “inactive”. In the case of CCOc1ccc(-c2cc(NC(=O)c3c(F)cccc3F)c(C(=O)OC)s2)cc1, the Potency is reported as “inactive”. With O=C(CSc1cccc[n+]1[O-])c1cc2ccccc2o1 the Potency was inconclusive: 8.91 µM [activator, partial curve]. For COc1ccc(NC(=O)c2cc(S(=O)(=O)N3CCCCC3)c[nH]2)cc1Cl, the Potency was inconclusive: 12.6 µM [activator, single point]. In the case of Cc1c(N=C2N=C(NC(=O)Nc3ccc(Cl)cc3)c3ccccc32)c(=O)n(-c2ccccc2)n1C, the Potency is reported as inconclusive: 31.6 µM [activator, single point]. In the case of COc1ccc(-c2ccc3c(N)c(C(=O)Nc4ccc(C)cc4C)sc3n2)cc1OC, the Potency is reported as inconclusive: 31.6 µM [activator, single point]. For COCCN1C(=O)/C(=C/c2ccc(N3CCCC3)cc2)SC1=S, the Potency was active: 3.55 µM. In the case of N#C/C(=C/c1ccc(N2CCCCC2)o1)C(=O)Nc1ccc(Cl)cc1, the Potency is reported as active: 0.631 µM. For CC(C)OC(=O)CSc1nnc(-c2ccc(C(C)(C)C)cc2)n1N, the Potency was “inactive”. With Cc1oc2ncnc(N3CCCCC3)c2c1C(=O)Nc1cccc(Cl)c1C the Potency was “inactive”. In the case of CCCOCc1cc(CN2CCN(c3cccc(Cl)c3)CC2)c(O)c2ncccc12, the Potency is reported as inconclusive: 5.62 µM [activator, single point]. For O=C(CSc1nc(-c2ccccc2Cl)ns1)Nc1ccc2c(c1)OCO2, the Potency was inconclusive: 22.4 µM [activator, single point]. For CCO[C@@H]1OC(C(=O)NCc2nc3ccccc3[nH]2)=C[C@H](C2CC2)[C@H]1CCCO, the Potency was “inactive”. For Cc1cccc(Oc2nc3c(C)cccn3c(=O)c2/C=C(\C#N)c2nc3ccccc3[nH]2)c1, the Potency was active: 7.08 µM. In the case of COc1cc(-c2cc(OC)c3c(C)oc(C)c3c(=O)c2)ccc1OC(=O)c1ccccc1Cl, the Potency is reported as inconclusive: 31.6 µM [activator, single point]. For CCc1ccc(-c2csc3[n+]2CCN3C(C)=O)cc1, the Potency was “inactive”. In the case of CCNC(=O)c1c(NC(=O)C2COc3ccccc3O2)sc2c1CCCC2 (centres undefined), the Potency is reported as “inactive”. For CCOc1cc(CNc2ccc(O)cc2)ccc1OCc1ccc(Cl)cc1Cl, the Potency was inconclusive: 22.4 µM [activator, single point]. For CCc1cccc(NC(=O)CSC2=Nc3ccccc3N=C(c3ccc(F)cc3)C2)c1, the Potency was “inactive”. With CCOc1ccccc1NC(=O)Cn1cc(C(=O)c2cccc(OC)c2)c(=O)c2ccc(C)nc21 the Potency was inconclusive: 35.5 µM [activator, single point]. With O=C1NC(=Nc2ccc(Cl)cc2)/C(=C/c2ccco2)S1 the Potency was inconclusive: 14.1 µM [activator, single point]. For Cc1cccn2c(=O)c(/C=C(\C#N)c3nc4ccccc4[nH]3)c(Oc3ccc(C(C)(C)C)cc3)nc12, the Potency was inconclusive: 22.4 µM [activator, single point]. In the case of Nc1nonc1C(=O)NCCNCc1cc(Br)ccc1OCc1ccc(F)cc1, the Potency is reported as “inactive”. With O=C(CSc1nc2ccccc2n1Cc1ccccc1)N1CCN(c2ccc(F)cc2)CC1 the Potency was inconclusive: 25.1 µM [activator, single point]. For Cc1c(O)ccc(NC(=O)/C=C/c2ccccc2)c1C, the Potency was “inactive”. In the case of Cc1ccc(COc2ccc(C)nc2[N+](=O)[O-])cc1, the Potency is reported as “inactive”. For CN(CC(=O)Nc1ccc(N2CCOCC2)cc1)CC(=O)Nc1ccc(N2CCOCC2)cc1, the Potency was “inactive”. With Cc1ccc(/C=C2/NC(=O)N(Cc3ccc(Br)cc3)C2=O)o1 the Potency was inconclusive: 31.6 µM [activator, single point]. With Cc1ccc2c(c1)-c1cc(C)nn1C(c1sccc1C)N2 (centres undefined) the Potency was “inactive”. In the case of Oc1c(C=Nc2cccc3cccnc23)sc2ccccc12, the Potency is reported as “inactive”. For C/C(=N/Nc1ccc([N+](=O)[O-])cc1)c1ccc(C)cc1C, the Potency was “inactive”. With c1ccc(C(c2nnnn2C2CCCC2)N2CCCCCC2)nc1 (centres undefined) the Potency was “inactive”. For C/C(=N\Nc1nc2ccccc2nc1C)c1ccccc1O, the Potency was inconclusive: 15.8 µM [activator, single point]. In the case of COc1ccc(C(=O)/C=C/c2ccc(OC)c(O)c2)c(F)c1, the Potency is reported as “inactive”. For COc1cc2cc(CN(Cc3cccs3)C(=S)Nc3ccc(C)cc3)c(=O)[nH]c2cc1OC, the Potency was inconclusive: 20 µM [activator, single point]. In the case of CCCOc1ccc(-c2nn(-c3ccccc3)cc2/C=C2\SC(N)=NC2=O)cc1, the Potency is reported as inconclusive: 35.5 µM [activator, single point]. With CC(C)NC(=O)/C(C#N)=C/c1ccc(N(C)C)o1 the Potency was “inactive”. In the case of CC1=C(C(=O)OCCOc2ccccc2)C(c2coc3ccccc3c2=O)C2=C(CCCC2=O)N1 (centres undefined), the Potency is reported as inconclusive: 28.2 µM [activator, single point]. With CNc1ccc(Br)cc(C(=O)/C=C/c2ccc(Cl)cc2Cl)c1=O the Potency was inconclusive: 35.5 µM [activator, single point]. In the case of COc1ccccc1NC(=O)c1c(NC(=O)CCC(=O)O)sc2c1CCCCC2, the Potency is reported as “inactive”. With Cc1cccn2cc(-c3ccc(F)cc3)cc12 the Potency was “inactive”. For CCc1ccc(N=CC2=C(O)CC(c3ccco3)CC2=O)cc1 (centres undefined), the Potency was “inactive”. With COc1cc2c(=O)n(CCc3ccccc3)c(=O)n(CC(=O)Nc3ccccc3)c2cc1OC the Potency was inconclusive: 35.5 µM [activator, single point]. For COc1ccc(CNC(=O)CN(Cc2ccccc2)C(=O)c2csnn2)cc1, the Potency was inconclusive: 35.5 µM [activator, single point].
